System: persistent sodium current in neuroblastoma cells
Experiment: Voltage-clamp, veratridine-induced persistent sodium current
Protocol: This experiment was undertaken by the method disclosed by Verdonck et al., Eur. J. Pharmacol., 203:371, 1991. Neuroblastoma cells were used. Isolated cells were strewn over a recording chamber filled with perfusion fluid; the membrane currents are recorded in a whole cell configuration by the voltage-clamp method based on the use of a glass microcapillary. Current components due to ions other than sodium ion were eliminated as follows. The potassium current was removed by cesium ion introduced in the capillary, and the calcium current was removed by cobalt ion added to the perfusion fluid. Measurement of the transient sodium current of the cells was achieved by applying depolarizing pulses at appropriate intervals to the cells clamped at holding potential, and by observing a transient inward current elicited therewith. The compound of Example 51 of this invention was added to the perfusion fluid; and its effect on the peak value of the inward current was followed. […] Observation of the persistent sodium current was achieved by adding veratridine to the perfusion fluid to 100 μmol/L, and shifting the holding potential towards depolarization, which caused a persistent inward current to develop in the cells. […] From results, concentration of the compound of this invention represented in Example 51 to inhibit the persistent sodium current by 18% is calculated at 7.2 μM. […]

Structure (SMILES): CC(C)Oc1ccc(N(C)CCC2(O)CCN(CCc3ccc(C#N)cc3)CC2)cc1.Cl.Cl [Example 51, 1-[2-(4-cyanophenyl)ethyl]-4-[2-[N-methyl-N-(4-isopropoxyphenyl)amino]ethyl]piperidin-4-ol dihydrochloride]
- Ratio of concentration inhibiting the transient sodium current by 18% against that for the persistent sodium current (selectivity persistent vs transient): 7.4
- Concentration to inhibit the persistent sodium current by 18% (veratridine 100 μmol/L, calculated from results): 7.2 µM

Source: patent US6642257B2, “Agents for treating neuropathic pain” (Mochida Pharmaceutical Co., Ltd., priority 1999, dated 2003)
